Data: patent US10654851B2, “Deuterated 3-(4,5-substituted aminopyrimidine)phenyl derivatives and use thereof” (NANJING CHUANGTE PHARMACEUTICAL TECHNOLOGY CO., LTD, priority 2016, dated 2020)
Blank lines part the entries; values can stand above or below the compound they belong to.

Key:
[1] = target: EGFR (T790M, L858R) double mutant in NCI-H1975 cells (Homo sapiens, UniProt P00533, L858R/T790M); format: cell-based; settings: 2 h incubation, read-out: Cell level EGFR phosphorylation IC50, NCI-H1975 (EGFR T790M/L858R)
[2] = target: EGFR (T790M, L858R) double mutant (Homo sapiens, UniProt P00533, L858R/T790M); assay: HTRF kinase activity assay, EGFR (T790M, L858R) double mutant

SMILES: [2H]C([2H])([2H])N(C)CCN(C)c1cc(OC)c(Nc2nccc(-c3cn4c5c(cccc35)CCC4)n2)cc1NC(=O)C=C [Compound 11]
IC50 [1]: 85.8 nM | IC50 [2]: 8.07 nM

SMILES: [2H]C([2H])([2H])N(CCN(C)c1cc(OC)c(Nc2nccc(-c3cn4c5c(cccc35)CCC4)n2)cc1NC(=O)C=C)C([2H])([2H])[2H] [Compound 16]
IC50 [1]: 94.9 nM | IC50 [2]: 9.12 nM

SMILES: [2H]C([2H])([2H])N(CCN(C)C)c1cc(OC)c(Nc2nccc(-c3cn4c5c(cccc35)CCC4)n2)cc1NC(=O)C=C [Compound 24]
IC50 [1]: 85.1 nM | IC50 [2]: 5.02 nM

IC50 [2]: 6.84 nM
SMILES: [2H]C([2H])([2H])NCCN(C)c1cc(OC)c(Nc2nccc(-c3cn4c5c(cccc35)CCC4)n2)cc1NC(=O)C=C [Compound 34]
